{"source": "the supplement of paper PMC8728848", "test_in_all_cases": "glycan array binding signal (z-score within array); higher = stronger binding", "conditions_in_all_cases": "glycan notation: IUPAC condensed, linker removed", "key": {"[1]": {"biological_target": "Glc(a1-4)Glc(a1-4)Glc(a1-4)Glc", "how_it_was_run": "(§1)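 Glycan array data came from 3228 arrays in the Consortium for Functional Glycomics database, and only arrays with an available protein sequence were kept. Glycan names were put into IUPAC-condensed notation, and columns mapping to the same glycan were averaged. The binding signal is a within-array Z-score, averaged across arrays of one protein sequence run at different concentrations or buffers and across linkers. A negative Z-score can be read as non-binding.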"}, "Glc(a1-6)Glc(a1-6)Glc": {"biological_target": "Glc(a1-6)Glc(a1-6)Glc", "how_it_was_run": "as §1"}, "[2]": {"biological_target": "Glc(a1-6)Glc(a1-6)Glc(a1-6)Glc", "how_it_was_run": "as §1"}, "Glc(b1-4)Glc": {"biological_target": "Glc(b1-4)Glc", "how_it_was_run": "as §1"}, "Glc(b1-6)Glc": {"biological_target": "Glc(b1-6)Glc", "how_it_was_run": "as §1"}, "GlcA(b1-3)Gal": {"biological_target": "GlcA(b1-3)Gal", "how_it_was_run": "as §1"}, "GlcA(b1-3)GlcNAc": {"biological_target": "GlcA(b1-3)GlcNAc", "how_it_was_run": "as §1"}, "GlcA(b1-6)Gal": {"biological_target": "GlcA(b1-6)Gal", "how_it_was_run": "as §1"}, "[3]": {"biological_target": "GlcA3S(b1-3)Gal(b1-4)GlcNAc(b1-2)Man", "how_it_was_run": "as §1"}, "[4]": {"biological_target": "GlcA3S(b1-3)Gal(b1-4)GlcNAc(b1-3)Gal(b1-4)Glc", "how_it_was_run": "as §1"}, "[5]": {"biological_target": "GlcNAc(a1-3)Gal(b1-4)GlcNAc", "how_it_was_run": "as §1"}, "[6]": {"biological_target": "GlcNAc(a1-4)Gal(b1-3)GlcNAc", "how_it_was_run": "as §1"}, "[7]": {"biological_target": "GlcNAc(a1-4)Gal(b1-4)GalNAc", "how_it_was_run": "as §1"}, "[8]": {"biological_target": "GlcNAc(a1-4)Gal(b1-4)GlcNAc", "how_it_was_run": "as §1"}, "[9]": {"biological_target": "GlcNAc(a1-4)Gal(b1-4)GlcNAc(b1-3)Gal(b1-4)Glc", "how_it_was_run": "as §1"}, "[10]": {"biological_target": "GlcNAc(a1-4)Gal(b1-4)GlcNAc(b1-3)Gal(b1-4)GlcNAc", "how_it_was_run": "as §1"}, "[11]": {"biological_target": "GlcNAc(a1-4)Gal(b1-4)GlcNAc(b1-3)Gal(b1-4)GlcNAc(b1-3)Gal(b1-4)GlcNAc", "how_it_was_run": "as §1"}, "[12]": {"biological_target": "GlcNAc(a1-4)Gal(b1-4)GlcNAc(b1-3)Gal(b1-4)[Fuc(a1-3)]GlcNAc(b1-3)Gal(b1-4)[Fuc(a1-3)]GlcNAc", "how_it_was_run": "as §1"}, "[13]": {"biological_target": "GlcNAc(a1-6)Gal(b1-4)GlcNAc", "how_it_was_run": "as §1"}, "[14]": {"biological_target": "GlcNAc(b1-2)Gal(b1-3)GalNAc", "how_it_was_run": "as §1"}, "[15]": {"biological_target": "GlcNAc(b1-2)Gal(b1-3)GlcNAc", "how_it_was_run": "as §1"}, "[16]": {"biological_target": "GlcNAc(b1-2)Man(a1-3)[GlcNAc(b1-2)Man(a1-6)]Man(b1-4)GlcNAc(b1-4)GlcNAc", "how_it_was_run": "as §1"}, "[17]": {"biological_target": "GlcNAc(b1-2)Man(a1-3)[GlcNAc(b1-2)Man(a1-6)]Man(b1-4)GlcNAc(b1-4)[Fuc(a1-6)]GlcNAc", "how_it_was_run": "as §1"}, "[18]": {"biological_target": "GlcNAc(b1-2)Man(a1-3)[GlcNAc(b1-4)][GlcNAc(b1-2)Man(a1-6)]Man(b1-4)GlcNAc(b1-4)GlcNAc", "how_it_was_run": "as §1"}, "[19]": {"biological_target": "GlcNAc(b1-2)Man(a1-3)[GlcNAc(b1-4)][GlcNAc(b1-2)Man(a1-6)]Man(b1-4)GlcNAc(b1-4)[Fuc(a1-6)]GlcNAc", "how_it_was_run": "as §1"}, "[20]": {"biological_target": "GlcNAc(b1-2)[GlcNAc(b1-4)]Man(a1-3)[GlcNAc(b1-2)Man(a1-6)]Man(b1-4)GlcNAc(b1-4)GlcNAc", "how_it_was_run": "as §1"}, "[21]": {"biological_target": "GlcNAc(b1-2)[GlcNAc(b1-4)]Man(a1-3)[GlcNAc(b1-4)][GlcNAc(b1-2)Man(a1-6)]Man(b1-4)GlcNAc(b1-4)GlcNAc", "how_it_was_run": "as §1"}, "[22]": {"biological_target": "GlcNAc(b1-2)[GlcNAc(b1-4)]Man(a1-3)[GlcNAc(b1-4)][GlcNAc(b1-2)[GlcNAc(b1-6)]Man(a1-6)]Man(b1-4)GlcNAc(b1-4)GlcNAc", "how_it_was_run": "as §1"}, "[23]": {"biological_target": "GlcNAc(b1-2)[GlcNAc(b1-4)]Man(a1-3)[GlcNAc(b1-4)][GlcNAc(b1-2)[GlcNAc(b1-6)]Man(a1-6)]Man(b1-4)GlcNAc(b1-4)[Fuc(a1-6)]GlcNAc", "how_it_was_run": "as §1"}, "[24]": {"biological_target": "GlcNAc(b1-2)[GlcNAc(b1-6)]Man(a1-6)[GlcNAc(b1-2)Man(a1-3)]Man(b1-4)GlcNAc(b1-4)GlcNAc", "how_it_was_run": "as §1"}, "[25]": {"biological_target": "GlcNAc(b1-2)[GlcNAc(b1-6)]Man(a1-6)[GlcNAc(b1-2)Man(a1-3)]Man(b1-4)GlcNAc(b1-4)[Fuc(a1-6)]GlcNAc", "how_it_was_run": "as §1"}, "[26]": {"biological_target": "GlcNAc(b1-2)[GlcNAc(b1-6)]Man(a1-6)[GlcNAc(b1-4)][GlcNAc(b1-2)Man(a1-3)]Man(b1-4)GlcNAc(b1-4)GlcNAc", "how_it_was_run": "as §1"}, "GlcNAc(b1-3)Fuc": {"biological_target": "GlcNAc(b1-3)Fuc", "how_it_was_run": "as §1"}, "GlcNAc(b1-3)Gal": {"biological_target": "GlcNAc(b1-3)Gal", "how_it_was_run": "as §1"}, "[27]": {"biological_target": "GlcNAc(b1-3)Gal(b1-3)GalNAc", "how_it_was_run": "as §1"}, "GlcNAc(b1-3)Gal(b1-4)Glc": {"biological_target": "GlcNAc(b1-3)Gal(b1-4)Glc", "how_it_was_run": "as §1"}, "[28]": {"biological_target": "GlcNAc(b1-3)Gal(b1-4)GlcNAc", "how_it_was_run": "as §1"}, "[29]": {"biological_target": "GlcNAc(b1-3)Gal(b1-4)GlcNAc(b1-2)Man(a1-3)[GlcNAc(b1-3)Gal(b1-4)GlcNAc(b1-2)Man(a1-6)]Man(b1-4)GlcNAc(b1-4)GlcNAc", "how_it_was_run": "as §1"}}, "note": "The other results are listed elsewhere or left out.", "data": [{"binder": "XL-35 (Xenopus laevis) (protein) MLVHILLLLVTGGLSQSCDPVVIVASKNMVKQLDCDKFRNCKEIKDSNEEAQDGIYTLTSPDGISYQTFCDMTTNGGGWTLVASVHENNMAGKCTIGDRWSSQQGNRADYPEGDGNWANYNTFGSAGGATSDDYKNPGYYDIEAYNLGVWHVPNKTPLSVWRNSSLQRYRTTDGILFKHGGNLFSLYRIYPVKYGIGSCSKDSGPTVPVVYDLGSANLTASFYSPGFRSQFTPGYIQFRPINTEKAALALCPGMKMESCNVEHVCIGGGGYFPEADPRQCGDFAAYDFNGYGTKKFNSAGIEITEAAVLLFYL", "values": [{"measurement": "glycan array binding signal (z-score)", "setting": "[1]", "value": 0.071}, {"measurement": "glycan array binding signal (z-score)", "setting": "Glc(a1-6)Glc(a1-6)Glc", "value": -0.098}, {"measurement": "glycan array binding signal (z-score)", "setting": "[2]", "value": 0.158}, {"measurement": "glycan array binding signal (z-score)", "setting": "Glc(b1-4)Glc", "value": -0.303}, {"measurement": "glycan array binding signal (z-score)", "setting": "Glc(b1-6)Glc", "value": 0.029}, {"measurement": "glycan array binding signal (z-score)", "setting": "GlcA(b1-3)Gal", "value": -0.196}, {"measurement": "glycan array binding signal (z-score)", "setting": "GlcA(b1-3)GlcNAc", "value": -0.417}, {"measurement": "glycan array binding signal (z-score)", "setting": "GlcA(b1-6)Gal", "value": 0.045}, {"measurement": "glycan array binding signal (z-score)", "setting": "[3]", "value": -0.708}, {"measurement": "glycan array binding signal (z-score)", "setting": "[4]", "value": -0.126}, {"measurement": "glycan array binding signal (z-score)", "setting": "[5]", "value": -0.074}, {"measurement": "glycan array binding signal (z-score)", "setting": "[6]", "value": 0.45}, {"measurement": "glycan array binding signal (z-score)", "setting": "[7]", "value": -0.303}, {"measurement": "glycan array binding signal (z-score)", "setting": "[8]", "value": -0.335}, {"measurement": "glycan array binding signal (z-score)", "setting": "[9]", "value": 0.22}, {"measurement": "glycan array binding signal (z-score)", "setting": "[10]", "value": 0.253}, {"measurement": "glycan array binding signal (z-score)", "setting": "[11]", "value": -0.301}, {"measurement": "glycan array binding signal (z-score)", "setting": "[12]", "value": 1.05}, {"measurement": "glycan array binding signal (z-score)", "setting": "[13]", "value": -0.183}, {"measurement": "glycan array binding signal (z-score)", "setting": "[14]", "value": -0.166}, {"measurement": "glycan array binding signal (z-score)", "setting": "[15]", "value": -0.087}, {"measurement": "glycan array binding signal (z-score)", "setting": "[16]", "value": -0.101}, {"measurement": "glycan array binding signal (z-score)", "setting": "[17]", "value": 0.138}, {"measurement": "glycan array binding signal (z-score)", "setting": "[18]", "value": -0.444}, {"measurement": "glycan array binding signal (z-score)", "setting": "[19]", "value": -0.371}, {"measurement": "glycan array binding signal (z-score)", "setting": "[20]", "value": -0.163}, {"measurement": "glycan array binding signal (z-score)", "setting": "[21]", "value": -0.191}, {"measurement": "glycan array binding signal (z-score)", "setting": "[22]", "value": -0.301}, {"measurement": "glycan array binding signal (z-score)", "setting": "[23]", "value": 0.316}, {"measurement": "glycan array binding signal (z-score)", "setting": "[24]", "value": -0.319}, {"measurement": "glycan array binding signal (z-score)", "setting": "[25]", "value": 0.025}, {"measurement": "glycan array binding signal (z-score)", "setting": "[26]", "value": 0.53}, {"measurement": "glycan array binding signal (z-score)", "setting": "GlcNAc(b1-3)Fuc", "value": -0.221}, {"measurement": "glycan array binding signal (z-score)", "setting": "GlcNAc(b1-3)Gal", "value": -0.296}, {"measurement": "glycan array binding signal (z-score)", "setting": "[27]", "value": -0.105}, {"measurement": "glycan array binding signal (z-score)", "setting": "GlcNAc(b1-3)Gal(b1-4)Glc", "value": -0.172}, {"measurement": "glycan array binding signal (z-score)", "setting": "[28]", "value": -0.151}, {"measurement": "glycan array binding signal (z-score)", "setting": "[29]", "value": 0.013}]}]}
